Drawing on the supplement of paper PMC4604168 (melanoma cell lines), this text covers cell count for 27 molecules.

Structures are written as SMILES. Some of the results follow. Single values are uncertain, as repeats are few or missing.
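Further: cells treated in 1,536-well plates, then fixed and DAPI-stained, with nuclei counted from automated high-throughput microscope images.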

The assay has as its system WM1745. Put plainly: cell count relative to DMSO control; melanoma cells; higher = more viable cells. The note with it: library dose: standard library concentration; 72 h.
The molecule `N#CC[C@H](C1CCCC1)n1cc(-c2ncnc3[nH]ccc23)cn1` [ruxolitinib] + O=C(O)c1ccc(-c2c[nH]c3ncc(-c4ccccc4)cc23)cc1C1CCCC1 [GSK650394] (first compound 5 µM, partner dose 0.8 µM) gave a cell count of 90.7%.

Molecule `CC[C@]1(O)C[C@H]2CN(CCc3c([nH]c4ccccc34)[C@@](C(=O)OC)(c3cc4c(cc3OC)N(C=O)[C@H]3[C@@](O)(C(=O)OC)[C@H](OC(C)=O)[C@]5(CC)C=CCN6CC[C@]43[C@@H]65)C2)C1` [vincristine] + OCCn1cc(-c2cnc3nnn(Cc4ccc5ncccc5c4)c3n2)cn1 [PF04217903] (first compound 0.0005 µM, partner dose 5 µM) had a cell count of 94.5%.

Regarding `Cc1cc(Nc2cc(N3CCN(C)CC3)nc(Sc3ccc(NC(=O)C4CC4)cc3)n2)n[nH]1` [Tozasertib] + CC1(C)NC(=O)N(c2ccc([N+](=O)[O-])c(C(F)(F)F)c2)C1=O [nilutamide] (first compound 0.03 µM, partner dose 5 µM), the cell count was 51.9%.

`Cc1cc(Nc2cc(N3CCN(C)CC3)nc(Sc3ccc(NC(=O)C4CC4)cc3)n2)n[nH]1` [Tozasertib] + NC(=O)Nc1cc(-c2cccc(F)c2)sc1C(=O)N[C@H]1CCCNC1 [AZD7762] (first compound 0.03 µM, partner dose 0.1 µM) yielded a cell count of 41.6%.

Take `Cc1cc(Nc2cc(N3CCN(C)CC3)nc(Sc3ccc(NC(=O)C4CC4)cc3)n2)n[nH]1` [Tozasertib] + CN(NC(=O)CC(=O)NN(C)C(=S)c1ccccc1)C(=S)c1ccccc1 [STA4783] (first compound 0.03 µM, partner dose 0.03 µM): the cell count came out at 33.1%.

In turn, `Cc1cc(Nc2cc(N3CCN(C)CC3)nc(Sc3ccc(NC(=O)C4CC4)cc3)n2)n[nH]1` [Tozasertib] + C=CCn1c(=O)c2cnc(Nc3ccc(N4CCN(C)CC4)cc3)nc2n1-c1cccc(C(C)(C)O)n1 [MK1775] (first compound 0.03 µM, partner dose 0.1 µM) gave a cell count of 34.7%.

`Cc1cc(Nc2cc(N3CCN(C)CC3)nc(Sc3ccc(NC(=O)C4CC4)cc3)n2)n[nH]1` [Tozasertib] + Cc1ccc(NC(=O)c2cccc(N(C)C)c2)cc1NC(=O)c1ccc(O)cc1 [ZM336372] (first compound 0.03 µM, partner dose 10 µM) yielded a cell count of 35.4%.

On to `CC[C@]1(O)C[C@H]2CN(CCc3c([nH]c4ccccc34)[C@@](C(=O)OC)(c3cc4c(cc3OC)N(C=O)[C@H]3[C@@](O)(C(=O)OC)[C@H](OC(C)=O)[C@]5(CC)C=CCN6CC[C@]43[C@@H]65)C2)C1` [vincristine] + C[C@@H]1CCN(C(=O)CC#N)C[C@@H]1N(C)c1ncnc2[nH]ccc12 [CP690550] (first compound 0.0005 µM, partner dose 5 µM), for which the cell count is 101%.

On to `Cc1cc(Nc2cc(N3CCN(C)CC3)nc(Sc3ccc(NC(=O)C4CC4)cc3)n2)n[nH]1` [Tozasertib] + CC(C)(C)c1cnc(CSc2cnc(NC(=O)C3CCNCC3)s2)o1 [SNS-032] (first compound 0.03 µM, partner dose 0.05 µM), for which the cell count was found to be 58.1%.

As to `CC[C@]1(O)C[C@H]2CN(CCc3c([nH]c4ccccc34)[C@@](C(=O)OC)(c3cc4c(cc3OC)N(C=O)[C@H]3[C@@](O)(C(=O)OC)[C@H](OC(C)=O)[C@]5(CC)C=CCN6CC[C@]43[C@@H]65)C2)C1` [vincristine] + C=CCn1c(=O)c2cnc(Nc3ccc(N4CCN(C)CC4)cc3)nc2n1-c1cccc(C(C)(C)O)n1 [MK1775] (first compound 0.0005 µM, partner dose 0.1 µM), the cell count worked out at 32.3%.

For the molecule `CC[C@]1(O)C[C@H]2CN(CCc3c([nH]c4ccccc34)[C@@](C(=O)OC)(c3cc4c(cc3OC)N(C=O)[C@H]3[C@@](O)(C(=O)OC)[C@H](OC(C)=O)[C@]5(CC)C=CCN6CC[C@]43[C@@H]65)C2)C1` [vincristine] + Cn1cncc1[C@@](N)(c1ccc(Cl)cc1)c1ccc2c(c1)c(-c1cccc(Cl)c1)cc(=O)n2C [tipifarnib] (first compound 0.0005 µM, partner dose 0.05 µM), the cell count amounted to 93%.

The molecule `N#CC[C@H](C1CCCC1)n1cc(-c2ncnc3[nH]ccc23)cn1` [ruxolitinib] + NCC(=O)Nc1ccc(-n2nc(C(F)(F)F)cc2-c2ccc3c(ccc4ccccc43)c2)cc1 [OSU03012] (first compound 5 µM, partner dose 5 µM) had a cell count of 62.7%.

On to `N#CC[C@H](C1CCCC1)n1cc(-c2ncnc3[nH]ccc23)cn1` [ruxolitinib] + CC(C)(C)c1cnc(CSc2cnc(NC(=O)C3CCNCC3)s2)o1 [SNS-032] (first compound 5 µM, partner dose 0.05 µM), for which the cell count amounted to 102%.

Consider `CC[C@]1(O)C[C@H]2CN(CCc3c([nH]c4ccccc34)[C@@](C(=O)OC)(c3cc4c(cc3OC)N(C=O)[C@H]3[C@@](O)(C(=O)OC)[C@H](OC(C)=O)[C@]5(CC)C=CCN6CC[C@]43[C@@H]65)C2)C1` [vincristine] + Cc1cc(N2CCOCC2)cc2[nH]c(-c3c(NC[C@@H](O)c4cccc(Cl)c4)cc[nH]c3=O)nc12 [BMS536924] (first compound 0.0005 µM, partner dose 1 µM), for which the cell count worked out at 34.5%.

The molecule `CC[C@]1(O)C[C@H]2CN(CCc3c([nH]c4ccccc34)[C@@](C(=O)OC)(c3cc4c(cc3OC)N(C=O)[C@H]3[C@@](O)(C(=O)OC)[C@H](OC(C)=O)[C@]5(CC)C=CCN6CC[C@]43[C@@H]65)C2)C1` [vincristine] + CC(C)(C)c1cnc(CSc2cnc(NC(=O)C3CCNCC3)s2)o1 [SNS-032] (first compound 0.0005 µM, partner dose 0.05 µM) showed a cell count of 67.4%.

`N#CC[C@H](C1CCCC1)n1cc(-c2ncnc3[nH]ccc23)cn1` [ruxolitinib] + NC(=O)Nc1cc(-c2cccc(F)c2)sc1C(=O)N[C@H]1CCCNC1 [AZD7762] (first compound 5 µM, partner dose 0.1 µM) returned a cell count of 89.6%.

As for `N#CC[C@H](C1CCCC1)n1cc(-c2ncnc3[nH]ccc23)cn1` [ruxolitinib] + O=C(Nc1cccc(Cl)c1)Nc1ncc(CCNc2ncnc3ccsc23)s1 [SNS314] (first compound 5 µM, partner dose 0.004 µM), the cell count turned out to be 69.9%.

`N#CC[C@H](C1CCCC1)n1cc(-c2ncnc3[nH]ccc23)cn1` [ruxolitinib] + CN(NC(=O)CC(=O)NN(C)C(=S)c1ccccc1)C(=S)c1ccccc1 [STA4783] (first compound 5 µM, partner dose 0.03 µM): the cell count was 48.6%.

For `N#CC[C@H](C1CCCC1)n1cc(-c2ncnc3[nH]ccc23)cn1` [ruxolitinib] + O=C(CCCCCCC(=O)Nc1ccccc1)NO [vorinostat] (first compound 5 µM, partner dose 0.4 µM), the cell count came to 86.2%.

For `Cc1cc(Nc2cc(N3CCN(C)CC3)nc(Sc3ccc(NC(=O)C4CC4)cc3)n2)n[nH]1` [Tozasertib] + OCCn1cc(-c2cnc3nnn(Cc4ccc5ncccc5c4)c3n2)cn1 [PF04217903] (first compound 0.03 µM, partner dose 5 µM), the cell count was determined as 36.4%.

In turn, `N#CC[C@H](C1CCCC1)n1cc(-c2ncnc3[nH]ccc23)cn1` [ruxolitinib] + Cc1cc(N2CCOCC2)cc2[nH]c(-c3c(NC[C@@H](O)c4cccc(Cl)c4)cc[nH]c3=O)nc12 [BMS536924] (first compound 5 µM, partner dose 1 µM) displayed a cell count of 31.8%.

Take `N#CC[C@H](C1CCCC1)n1cc(-c2ncnc3[nH]ccc23)cn1` [ruxolitinib] + C=CCn1c(=O)c2cnc(Nc3ccc(N4CCN(C)CC4)cc3)nc2n1-c1cccc(C(C)(C)O)n1 [MK1775] (first compound 5 µM, partner dose 0.1 µM): the cell count is 40.6%.

Molecule `N#CC[C@H](C1CCCC1)n1cc(-c2ncnc3[nH]ccc23)cn1` [ruxolitinib] + C[C@@H]1CCN(C(=O)CC#N)C[C@@H]1N(C)c1ncnc2[nH]ccc12 [CP690550] (first compound 5 µM, partner dose 5 µM) displayed a cell count of 75.5%.

Turning to `CC[C@]1(O)C[C@H]2CN(CCc3c([nH]c4ccccc34)[C@@](C(=O)OC)(c3cc4c(cc3OC)N(C=O)[C@H]3[C@@](O)(C(=O)OC)[C@H](OC(C)=O)[C@]5(CC)C=CCN6CC[C@]43[C@@H]65)C2)C1` [vincristine] + CN(C)S(=O)(=O)c1ccc2c(c1)/C(=C/c1cc3c([nH]1)CCCC3)C(=O)N2 [SU6656] (first compound 0.0005 µM, partner dose 2 µM), the cell count amounted to 46.7%.

Molecule `Cc1cc(Nc2cc(N3CCN(C)CC3)nc(Sc3ccc(NC(=O)C4CC4)cc3)n2)n[nH]1` [Tozasertib] + Cc1cc(N2CCOCC2)cc2[nH]c(-c3c(NC[C@@H](O)c4cccc(Cl)c4)cc[nH]c3=O)nc12 [BMS536924] (first compound 0.03 µM, partner dose 1 µM) came in with a cell count of 42.7%.

Consider `N#CC[C@H](C1CCCC1)n1cc(-c2ncnc3[nH]ccc23)cn1` [ruxolitinib] + Cn1c(Nc2ccc(C(F)(F)F)cc2)nc2cc(Oc3ccnc(-c4ncc(C(F)(F)F)[nH]4)c3)ccc21 [CHIR265] (first compound 5 µM, partner dose 0.4 µM), for which the cell count is 66.8%.

Turning to `CC[C@]1(O)C[C@H]2CN(CCc3c([nH]c4ccccc34)[C@@](C(=O)OC)(c3cc4c(cc3OC)N(C=O)[C@H]3[C@@](O)(C(=O)OC)[C@H](OC(C)=O)[C@]5(CC)C=CCN6CC[C@]43[C@@H]65)C2)C1` [vincristine] + Cc1ccc(NC(=O)c2cccc(N(C)C)c2)cc1NC(=O)c1ccc(O)cc1 [ZM336372] (first compound 0.0005 µM, partner dose 10 µM), the cell count was found to be 72.2%.
